Source: US20090306098A1 (Cyclacel Limited, priority 2005, published 2009)

How the values were obtained:
[1] = test system: Mcl-1, XIAP, Bcl-2, survivin, cleaved PARP; details: H460, 1× or 1.5×IC50, 24 h; FIG. 4
[2] = test system: survivin, Bcl-2, Mcl-1, XIAP, caspase 3 and 9; details: H460, 1×IC50, time course; FIG. 5

CCCC(=O)[O-].[Na+] [Butyrate, sodium butyrate]
reduces: Bcl-2 protein level [1] | survivin protein level [1] | Bcl-2 level [2] | survivin level [2]
